Reference: PMC4336329 (PLoS ONE, 2015)
In all, about 310,000 compounds went through this assay and about 14,000 (4.5%) showed an effect of 50% or more. The effect is printed as a negative number. The list shows a part of the results.

molecular target: human ether-à-go-go-related gene (hERG) potassium channel (human, UniProt Q12809); assay: primary screen, population patch clamp on CHO cells stably expressing hERG
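Further: peak tail current of the secondary pulse compared with the same well before compound.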

Sequence of human ether-à-go-go-related gene (hERG) potassium channel (Q12809 whole entry, looked up): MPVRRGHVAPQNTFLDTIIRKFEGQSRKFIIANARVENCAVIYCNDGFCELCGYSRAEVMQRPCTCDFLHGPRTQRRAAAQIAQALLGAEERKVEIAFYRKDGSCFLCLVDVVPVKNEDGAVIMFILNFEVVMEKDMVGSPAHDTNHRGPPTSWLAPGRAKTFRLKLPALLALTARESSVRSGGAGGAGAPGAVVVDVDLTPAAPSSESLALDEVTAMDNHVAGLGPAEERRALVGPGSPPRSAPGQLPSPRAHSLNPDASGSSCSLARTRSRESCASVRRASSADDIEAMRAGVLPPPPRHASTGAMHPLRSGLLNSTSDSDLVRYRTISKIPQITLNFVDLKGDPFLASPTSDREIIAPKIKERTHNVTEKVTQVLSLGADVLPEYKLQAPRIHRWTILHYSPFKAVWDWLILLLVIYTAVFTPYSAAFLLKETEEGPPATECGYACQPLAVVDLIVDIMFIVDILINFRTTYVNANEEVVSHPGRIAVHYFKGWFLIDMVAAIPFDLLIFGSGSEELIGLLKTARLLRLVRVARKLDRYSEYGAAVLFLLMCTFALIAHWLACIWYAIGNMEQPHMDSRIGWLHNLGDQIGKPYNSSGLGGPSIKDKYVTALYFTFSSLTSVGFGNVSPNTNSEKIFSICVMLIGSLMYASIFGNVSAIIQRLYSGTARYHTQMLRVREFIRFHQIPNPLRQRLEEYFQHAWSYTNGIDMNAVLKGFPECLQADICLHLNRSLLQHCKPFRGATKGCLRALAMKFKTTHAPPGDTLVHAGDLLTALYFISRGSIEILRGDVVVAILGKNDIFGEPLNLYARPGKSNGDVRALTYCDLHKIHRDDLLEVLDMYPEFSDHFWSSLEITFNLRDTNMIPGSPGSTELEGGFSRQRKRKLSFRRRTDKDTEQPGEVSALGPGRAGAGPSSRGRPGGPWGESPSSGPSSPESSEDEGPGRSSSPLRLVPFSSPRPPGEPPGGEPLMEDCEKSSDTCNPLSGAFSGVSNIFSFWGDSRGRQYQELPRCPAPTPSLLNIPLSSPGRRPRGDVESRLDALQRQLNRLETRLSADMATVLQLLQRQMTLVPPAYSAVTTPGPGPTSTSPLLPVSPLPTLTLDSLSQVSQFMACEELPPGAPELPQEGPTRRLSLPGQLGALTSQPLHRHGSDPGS

In order of falling “hERG current change (%, negative = inhibition) at 10uM” value:
1. O=C(OCc1nnc(-c2ccccc2)o1)c1ccc2c(c1)C(=O)N(CCc1ccccc1)C2=O  26.7%
2. O=C(Nc1ccccc1C(=O)O)c1cccc(NC(=O)c2ccccc2Cl)c1  22.1%
3. O=C(/C=C/c1cccs1)c1ccc(N2CCOCC2)cc1  22%
4. CCN(CC)S(=O)(=O)N1CCC(C(=O)N2CCC3(CC2)OCCO3)CC1  21.5%
5. NC(=O)NNc1cccc(Cl)n1  21.4%
6. COc1ccc(C(=O)NNC2=NS(=O)(=O)c3ccccc32)cc1OC  18.7%
7. O=C(O)c1cccc2c(-c3ccccc3)c(-c3ccccc3)[nH]c12  18.5%
8. CC1(C)Cc2nc3oc4c(=O)n(CC(=O)Nc5cccc(Cl)c5)cnc4c3cc2CO1  17.8%
9. CC(NC(=O)C[n+]1cccc(Br)c1)c1ccccc1.[Cl-] (centres unmarked)  17.6%
10. Cc1ccc(OCC(=O)Sc2ccc(C)cc2)cc1  17.2%
11. CCOC(=O)CSCCOc1ccc(C=C2C(=O)NC(=O)NC2=O)cc1OC  16.4%
12. COc1cccc(N(CC(=O)NC2CCCC2)C(=O)Cn2nnc(-c3ccc(C)cc3)n2)c1  16.1%
13. CC(C)NC(=O)CCS(=O)(=O)c1ccc(Br)s1  16.1%
14. CNc1nc(Nc2ccc(C)c(Cl)c2)c2cnn(C)c2n1  15.5%
15. COc1cc(C2C(C#N)=C(N)N(Nc3ccccc3)C3=C2C(=O)CC(C)(C)C3)ccc1OCc1ccccc1 (centres unmarked)  15.5%
16. CN(CCO)C1=NS(=O)(=O)c2cc([N+](=O)[O-])ccc21  14.7%
17. O=c1cc(CSc2n[nH]c(-c3ccncc3)n2)nc2sccn12  13.9%
18. Cc1ccc(Sc2cnn(-c3ccccc3)c(=O)c2Cl)cc1  13.8%
19. COc1ccc(NC(=O)c2ccc(OC(=S)N(C)c3ccc(OC)cc3)cc2)cc1  13.3%
20. CC1(C)CC(=O)/C(=C(\O)CCCN2C(=O)c3ccccc3C2=O)C(=NCCO)C1  11.7%
21. C/C(=N/N=C1/NC(=O)CC(C(=O)O)S1)c1ccccc1 (centres unmarked)  11.1%
22. Cc1ccccc1/C=c1\s/c(=C\C(=O)C(C)(C)C)[nH]c1=O  10.4%
23. COc1cc(CNc2ccc3[nH]c(=O)[nH]c3c2)ccc1OCC(=O)NC(C)(C)C  9.86%
24. COc1ccc(-c2nnc(SCC(=O)N3c4ccccc4Sc4ccccc43)o2)cc1  8.54%
25. O=C(N=C1SC2CS(=O)(=O)CC2N1c1ccc(Cl)c(Cl)c1)C1CCCO1 (centres unmarked)  8.35%
26. COCCN1C=C(C(=O)OC)C(c2ccccc2Cl)C(C(=O)OC)=C1  8.12%
27. CC(C)OC(=O)c1cccnc1N1CCN(c2cccc(Cl)c2)CC1  7.99%
28. COc1cccc(C2CC(c3c(Cl)cccc3Cl)n3nc(N)nc3N2)c1 (centres unmarked)  7.93%
29. O=C(NC(=S)Nc1ccc(N2CCOCC2)cc1)c1cccc([N+](=O)[O-])c1  7.28%
30. Cc1nnc(C)c2c(C)n(-c3cccc4cccnc34)c(C)c12  6.71%
31. CC(C)CC(=O)Nc1cccc2c1C(=O)N(c1ccccc1)C2=O  6.31%
32. Cn1c(=O)n(C)c2cc(S(=O)(=O)NCc3ccccc3)ccc21  6.21%
33. CCOC(=O)c1ccc(NC(=O)c2ccc3c(c2)C(=O)N(Cc2cccnc2)C3=O)cc1  5.98%
34. COCCCn1c(SCC(=O)NNC(=O)c2cccc(O)c2)nnc1-c1ccncc1  5.74%
35. O=C(/C=C/c1cn(-c2ccccc2)nc1-c1cccc(Cl)c1)N1CCN(c2ccccn2)CC1  5.73%
36. Cc1ccc(NC(=S)NCc2ccccc2)cc1S(=O)(=O)N1CCCCC1  5.69%
37. COc1cccc(CNCc2ccccn2)c1OC  5.32%
38. Cc1ccc(S(=O)(=O)N=S(CCO)CCO)cc1  4.93%
39. Cc1cc(Br)ccc1OCC(=O)NNC(=O)c1ccc(NC(=O)C2CC2)cc1  3.71%
40. Cc1ccccc1-c1nc(CS(=O)(=O)CC(=O)N2CCOCC2)c(C)o1  3.45%
41. COc1ccccc1NC(=O)Cn1nnc(-c2ccccc2NC(=O)c2cc3ccccc3oc2=O)n1  2.86%
42. COC(=O)c1c(NC(=O)CN2C(=O)NC(CCc3ccccc3)C2=O)sc2c1CCCCC2 (centres unmarked)  2.25%
43. Cc1nonc1NC(=O)OC1CCCCC1  1.97%
44. CCC1=Nc2cc(C(=O)NCCCN3CCOCC3)ccc2Sc2ccc(Br)cc21  1.96%
45. COc1ccc(NC(=O)CSc2ncnc3[nH]ncc23)cc1  1.95%
46. COC(=O)CC1SC(=O)NC1=Nc1ccc(OC)cc1 (centres unmarked)  1.66%
47. O=C(NCCS(=O)(=O)c1ccc(Br)cc1)c1ccc(Cl)cc1Cl  0.239%
48. CCOc1ccccc1C(=O)NCC(=O)OCC(=O)N1C(C)CCCC1C (centres unmarked)  -0.108%
49. O=C(CSc1ncccn1)N1CCCc2ccccc21  -0.261%
50. Cc1noc(C)c1COC(=O)c1ccc2c(c1)S(=O)(=O)c1ccccc1C2=O  -0.375%
51. COc1ccc(S(=O)(=O)N2CCCC(C(=O)N3CCOCC3)C2)cc1C (centres unmarked)  -1.24%
52. Cc1nnc(SCC(=O)Nc2ccccc2C(=O)NC2CC2)s1  -1.9%
53. CCOc1ccccc1NC(=O)Cn1c(=O)sc2ccccc21  -2.1%
54. ON1C(c2ccccc2)CC2(O)c3nonc3CCC12 (centres unmarked)  -2.85%
55. COCCCNC(=O)c1cc(C(=O)c2c(-c3c(Cl)cccc3Cl)noc2C)c[nH]1  -3.65%
56. CCOC(=O)c1[nH]c(C)c(C(=O)N2CCCC(Nc3ccc(C)c(C)c3)C2)c1C (centres unmarked)  -4.07%
57. O=C1N[C@@H](Cc2ccccc2)C(=O)N2[C@@H]1C[C@@]1(Br)c3ccccc3N(S(=O)(=O)c3ccccc3)[C@@H]21  -4.24%
58. COCCNC(=O)C(c1ccco1)N(C(=O)Cn1nnc2ccccc21)c1ccccc1C (centres unmarked)  -4.39%
59. O=C(COC(=O)c1cccc(-n2cnnn2)c1)c1ccccc1  -4.63%
60. Cc1ccc(NNC(=O)c2cc(C(C)(C)C)nn2Cc2ccccc2)cc1  -4.99%
61. COc1ccc(C(=O)Sc2ccc(Cl)cc2)cc1OC  -7.35%
62. Cn1[nH]c(C(F)(F)F)c(C=NCc2ccc(Cl)cc2)c1=O  -8.29%
63. COc1cccc(/C=N\NC(=O)C2C(=O)NCC2c2ccccc2)c1O (centres unmarked)  -9.31%
64. Cc1c(C(=O)OCC(=O)N(C)Cc2ccc(Cl)cc2)oc2ccccc12  -10%
65. O=C(/C=C/c1ccccc1)NCC(=O)N/N=C\c1cccnc1  -10.9%
66. O=C(Oc1ccc([N+](=O)[O-])cc1)c1cccnc1  -11%
67. COc1ccccc1N1CCN(C(=O)c2cc3c(=O)n4cccc(C)c4nc3s2)CC1  -11.2%
68. COc1ccc(/C(C)=N/NC(=O)c2ccc(N(C)C)cc2)cc1  -11.8%
69. COc1ccc(N(C(=O)c2ccncc2)S(=O)(=O)c2cccs2)cc1  -13.3%
70. Nc1nc(NCc2ccco2)nc(N2CCCCC2)c1[N+](=O)[O-]  -19%
71. Cc1ccc(Cl)c(NC(=O)CN(C)CC(=O)Nc2ccc(F)c(F)c2F)c1Cl  -23.8%
72. O=C(/C=C/c1ccccc1)N1CCC(Cc2ccccc2)CC1  -24%
73. CCN(CC)CCNC(=O)c1ccc(NC(=O)c2ccc(Cl)c(S(=O)(=O)N3CCCCCC3)c2)cc1.Cl  -24%
74. Oc1c(C(c2cccs2)N2CCN(c3cccc(Cl)c3)CC2)sc2ncnn12 (centres unmarked)  -26.5%
75. CCCCN(C)C(=O)c1ccc(CS(=O)(=O)c2ccccc2C)o1  -27.2%
76. Cc1cc(C)c(OCC(=O)OCC(=O)N2CCN(C(=O)c3ccco3)CC2)c(C)c1  -30.4%
77. N/C(=N\OC(=O)CCC1CCCC1)c1ccc(Br)cc1  -31.6%
78. O=C(C1CCN(S(=O)(=O)c2ccccc2)CC1)N1CCN(c2ccccc2F)CC1  -33.7%
79. C=CCC(c1ccccc1F)N(CCN1CCOCC1)C(=O)Nc1cccc(Cl)c1 (centres unmarked)  -34.6%
80. CCc1c(C)nc2ncnn2c1N1CCCC(C(=O)NCc2ccc3c(c2)OCO3)C1 (centres unmarked)  -37.4%
81. Cc1ccc(S(=O)(=O)N(C)c2ccc(NS(C)(=O)=O)cc2)cc1  -42.2%
82. CCC(C)(C)n1nnnc1C(c1ccncc1)N1CCC(Cc2ccccc2)CC1 (centres unmarked)  -43%
83. CCCCn1c(O)c(C(C)=NC(Cc2c[nH]c3ccccc23)C(=O)OC)c(=O)[nH]c1=O (centres unmarked)  -52.1%
84. COc1ccc(-n2c(Cc3cccn3C)nnc2SCC(=O)Nc2ccccc2F)cc1  -53.7%
85. O=C(NCc1cccnc1)c1sc2cc(Cl)ccc2c1Cl  -55.4%
86. CCOCCn1c(=O)c2c(nc3n2CC(C)CN3CCc2ccccc2)n(C)c1=O (centres unmarked)  -71.5%
